The results in this text go back to ChEMBL document CHEMBL1157539, “Thousands of chemical starting points for antimalarial lead identification” (Nature, 2010).

In all, about 13,000 compounds were measured (“IFI”: median about 4, highest 2% from about 17 on). This is one part of the list.

A short description of this assay: GSK_TCMDC: Inhibition Frequency Index (IFI). The number of non-kinase HTS assays where a compound showed > 50 % inhibition, expressed as a percentage of the number of such assays in which the compound was tested (-0 is zero). The assay is classed as functional.
`CCc1ccc(NC(=O)c2cccc(CN3CCCN(CC4CCCCC4)CC3)c2)cc1` displayed an IFI of 8.63%.

As to `COc1ccc(CNc2nccc3ccc(-c4ccc(N)nc4)cc23)cc1`, the IFI is 1.33%.

In turn, `COc1ccc(CCNCCCCCCNCCc2ccc(OC)c(OC)c2Cl)c(Cl)c1OC` registered an IFI of 2.94%.

`COc1ccc(NC(=O)C2CCN(CCCCCNC(=O)/C=C/c3ccc(Cl)c(Cl)c3)CC2)cc1` returned an IFI of 5.94%.

As for `CC(=O)N(Cc1ccc(CC(C)NCCc2cccc(Cl)c2)cc1)Cc1ccc(CC(C)NCCc2cccc(Cl)c2)cc1` (stereo unspecified), the IFI is 15.5%.

`Nc1ccc(-c2nc3cc(Cc4ccc5[nH]c(-c6ccc(N)cc6)nc5c4)ccc3[nH]2)cc1` displayed an IFI of 6.57%.

In the case of `CCN(CC)CCc1ccc2c(=O)cc(CCc3cccc(F)c3F)n(CC(=O)N(C)Cc3ccc(-c4ccc(C(F)(F)F)cc4)cc3)c2c1`, the IFI turned out to be 9.93%.

Consider `O=c1[nH]ccc2nc(N[C@@H]3CCNC3)nc(Nc3cc(Cl)cc(Cl)c3)c12`, for which the IFI was 16.7%.

For the compound `CO/C(=C\C=C\c1cc2cc(Cl)c(Cl)cc2[nH]1)C(=O)NCCCN1CCCC[C@@H]1C`, the IFI was found to be 12.9%.

For `O=C(Nc1cccc(CN2CCCN(Cc3cccc(Cl)c3)CC2)c1)c1ccc(Br)cc1`, the IFI was 10.2%.

For `CCn1ccc2c(N3CCCS3(=O)=O)cc(C(=O)N[C@@H](Cc3ccccc3)[C@H](O)CNC(C)(C)CCCC(C)C)cc21`, the IFI amounted to 4.48%.

`CCOC(=O)c1ccc(NC(=O)Nc2ccc(-c3ccc(-c4nc5cc(C(F)(F)F)ccc5[nH]4)cc3)cc2)cc1` returned an IFI of 7.92%.

Turning to `CN(C)CCN(Cc1ccc(-c2ccc(CNCCc3ccccc3)cc2)nc1)C(=O)CCC1CCCC1`, the IFI came to 8.33%.

Regarding `CS(=O)(=O)c1ccc(CCNCc2ccc(-c3ccc(CNC4CCN(Cc5ccccc5)CC4)cc3)nc2)cc1`, the IFI was determined as 4.11%.

In turn, `COc1ccc(NC(=O)Nc2cccc(-c3ccc(-c4nc5cc(C(F)(F)F)ccc5[nH]4)cc3)c2)cc1` registered an IFI of 3.03%.

Take `CCCc1cc(Cc2cnc(N)nc2N)cc(CCC)c1OCCCCCC(=O)OCC`: the IFI turned out to be 13.1%.

Turning to `COc1cc2c(cc1OC)C(C)(C)CN1Cc3c(c(CO)c(OC)c(OC)c3OC)CC21` (stereo unspecified), the IFI came out at 0.82%.

Compound `COc1ccc(C2c3ccccc3-c3nc(N)nc(N)c3C2C)cc1` (stereo unspecified) came in with an IFI of 2.46%.

In the case of `N#Cc1ccc(CN2CCC(Oc3ccc(NC(=O)c4ccco4)cc3Cl)C2)cc1` (stereo unspecified), the IFI amounted to 4.62%.

`Cc1cc(N[C@@H](Cc2ccccc2)C(=O)NCc2cccs2)nc(NCCc2cccnc2)n1`: the IFI is 2.5%.

Take `NC(=O)c1sc(-n2cnc3ccc(OCC4CCNCC4)cc32)cc1OCc1ccccc1C(F)(F)F`: the IFI was found to be 4.07%.

The compound `COc1ccc2c(c1)CC1CN(CCCCNC(=O)c3ccc(NC(=O)c4cc(Cl)cc(Cl)c4)cc3)CCN1C2` (stereo unspecified) registered an IFI of 3.57%.

Consider `O=C(Nc1ccnc(N2CCCN(Cc3cccc(O)c3)CC2)c1)c1ccc(F)cc1`, for which the IFI worked out at 2.44%.

In turn, `CN(C)CCCOc1ccc(CNCC(C)(C)c2nc(-c3ccc(Cl)c(O)c3)c(-c3ccncc3)[nH]2)cc1` registered an IFI of 6.16%.

Turning to `COc1ccc2ncc(F)c(CCN3CC[C@@H](CNCc4ccc5c(c4C)OCCO5)C3)c2n1`, the IFI was 6.14%.

In turn, `CO/C(=C\C=C\c1cc2cc(Cl)c(Cl)cc2[nH]1)C(=O)NCCCN1CCN(c2cccc(Cl)c2)CC1` had an IFI of 8.27%.

With `N#Cc1cccc(NC(=O)Nc2cccc(-c3ccc(-c4nc5cc(C(F)(F)F)ccc5[nH]4)cc3)c2)c1`, the IFI came to 7%.

Compound `CC(C)(C)c1cc(C(=O)N2CCN(c3ncnc4ccsc34)CC2)n(Cc2ccccc2)n1` had an IFI of 1.41%.

Take `CN1CCCC(CN2CCN(Cc3cccc(-c4ccc(-c5nc6cc(F)ccc6[nH]5)cc4)c3)CC2)C1` (stereo unspecified): the IFI was found to be 5.56%.

Compound `CS(=O)(=O)Nc1ccc(OCCCCCCOc2ccc(NS(C)(=O)=O)cc2)cc1` returned an IFI of 0%.

As for `CC1(CCN2CCC(c3c[nH]c4cnccc34)CC2)CCCc2c(Br)cccc2C1=O` (stereo unspecified), the IFI was determined as 8.51%.

As for `Cn1cc(C(=O)Nc2cccc(-c3cccc(-c4nc5ccccc5[nH]4)c3)c2)n(C)c1=O`, the IFI turned out to be 2.78%.

Consider `Clc1ccc(CNc2nc(NCCc3c[nH]cn3)nc(Nc3ccc4c(c3)OCO4)n2)cc1`, for which the IFI turned out to be 1.5%.

On to `COC(=O)c1ccc(CCCNCC(O)c2cccc(C(F)(F)F)c2)cc1` (stereo unspecified), for which the IFI was found to be 4.41%.

With `CCn1ccc2c3c(N)nc(N)nc3ccc21`, the IFI turned out to be 4.26%.

As for `N=C(N)NCCN(Cc1ccccc1)c1ccc(Cl)cc1`, the IFI turned out to be 5.15%.

Consider `CCN(CCCN1CCCC1)c1cc(C)nc(Nc2ccc(Cl)cc2)n1`, for which the IFI was determined as 6.38%.

With `O=C(Nc1ccc(C(=O)N2CCN(CCN3CCN(c4cccc(C(F)(F)F)c4)CC3)CC2)cc1)c1ccc(OC(F)(F)F)cc1`, the IFI worked out at 11.3%.

Consider `Fc1ccc(CNc2ccc3ncc(-c4cccnc4)n3n2)cc1`, for which the IFI amounted to 4.72%.

In turn, `CC(C)c1ccc(OCC(O)CN(C)C(C)C(O)c2ccccc2)c(Br)c1` (stereo unspecified) yielded an IFI of 9.09%.

On to `CCc1cc2c(=O)c(-c3nc(C)cs3)c(N)oc2c(CN2CCCCC2)c1O`, for which the IFI worked out at 2.24%.

In turn, `COc1c(C2CCN(CCCCNC(=O)c3ccc(-c4ccc(Cl)cc4)c(OCCN(C)C)c3)CC2)ccc2c1CCCC2` returned an IFI of 14.4%.

As to `Nc1nc(F)nc2nc[nH]c12`, the IFI was 7.75%.

In turn, `CC1CCNc2ccc(Cc3cnc(N)nc3N)cc21` (stereo unspecified) yielded an IFI of 3.23%.

`CCN(CC)CCN(Cc1ccc(-c2ccc(C(F)(F)F)cc2)cc1)C(=O)Cn1c(CCc2ccc(F)c(F)c2F)nc(=O)c2cccnc21` displayed an IFI of 3.4%.

Take `FC(F)(F)COc1ccc2ccccc2c1CNCCCCCCNCc1c(OCC(F)(F)F)ccc2ccccc12`: the IFI came out at 14.9%.

`CC(C)(C)OC(=O)C1CCCN(Cc2ccc(-c3cccc(-c4nc5ccccc5[nH]4)c3)cc2)C1` (stereo unspecified) gave an IFI of 1.94%.

With `COc1ccc2nccc([C@@H](O)CN3CCC(NCc4nc5c(cc4Cl)OCC(=O)N5)C(F)C3)c2c1` (stereo partly specified), the IFI was found to be 2.38%.

Turning to `COc1ccc(CCN(C)CCOc2ccc(NC(=O)c3ccc([N+](=O)[O-])c4c(=O)c5ccccc5[nH]c34)cc2)cc1OC`, the IFI was found to be 6.47%.

Consider `CCCCCCCC/C=C\CCCCCCCC(=O)NCc1ccc(O)c(OC)c1`, for which the IFI stood at 4.38%.

Regarding `CCCc1ccc(S(=O)(=O)Nc2ccc3c(c2)CCC3)cc1`, the IFI came to 2.26%.

As to `NCCCOc1cnc(-c2ccccc2)c2nc(-c3nonc3N)n(CCc3ccccc3)c12`, the IFI is 18.8%.

`CCc1cc(Br)c(CNCCCNc2cc(=O)c3ccccc3[nH]2)s1` registered an IFI of 1.47%.

The compound `O=C(NC1CCN(CCCOc2ccnc3cc(Cl)ccc23)C1)c1ccc(Br)cc1` (stereo unspecified) returned an IFI of 3.31%.

`CC(C)(C)c1ccc(S(=O)(=O)Nc2cc(Cl)ccc2Cn2ccc(N3CCNCC3)nc2=O)cc1`: the IFI turned out to be 2.13%.

With `COc1cccc(CCNCCCCCCNCCc2ccc(Cl)cc2)c1`, the IFI was found to be 7.94%.
